# Laboratory results: PubChem BioAssay (NCATS)
# Where “and” joins values, the source holds several entries; their conditions need not be identical. Equal entries are not always repeated. Inconclusive results, whose numbers are uncertain, are shown with a selection of clear calls. Where the call is inconclusive, the potency comes from a doubtful curve fit. More than one record can exist for a structure, and the calls need not agree. Calls of active or inactive are those of the source. Unless noted, the call rests on the fitted dose curve; in most records, active means well fitted curve in the direction sought with a large enough effect; inconclusive means small, poorly fitted or top-dose-only effect, or another doubt; inactive means no such curve, though single readings can be large; an effect the other way counts as inactive or inconclusive.
# Key:
# [1] = Quantitative High-Throughput drug screen in 47 multiple myeloma cell lines against the NCATS MIPE library collection: PE2_PLB cell viability assay (AID 1919869); further: nearly all actives have a fitted effect of over 35% in size
# Method in brief: (§1)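 ATP-based CellTiter-Glo luminescence after 48 h drug exposure (37 °C, 5% CO2) of 500 myeloma cells per well. DMSO-only wells set 100% viability, media-only wells 0%; MIPE 4.0 library added by pin tool.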
# [2] = Quantitative High-Throughput drug screen in 47 multiple myeloma cell lines against the NCATS MIPE library collection: PCM6_Riken cell viability assay (AID 1919870); details: CellTiter-Glo ATP, 48 h; viability (% of control): at 45.8 µM (top of the series); further: nearly all actives have a fitted effect of over 30% in size
# Method in brief: as §1
# [3] = Quantitative High-Throughput drug screen in 47 multiple myeloma cell lines against the NCATS MIPE library collection: KMS11_JCRBsus cell viability assay (AID 1919873); further: nearly all actives have a fitted effect of over 50% in size
# Method in brief: as §1
# [4] = Quantitative High-Throughput drug screen in 47 multiple myeloma cell lines against the NCATS MIPE library collection: KMS28BM_JCRB cell viability assay (AID 1919874); further: nearly all actives have a fitted effect of over 35% in size
# Method in brief: as §1
# [5] = qHTS for identification of novel therapeutic agents for treatment of microphthalmiaassociated transcription factor (MiT) renal cell carcinoma (RCC) (AID 1963991; calls by dose curve); details: TFE3-RCC UOK109 viability, CellTiter-Glo, 48 h; active = Z-AUC below -0.8 in all three lines
# Method in brief: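 Curves over 11 concentrations were fitted to CellTiter-Glo luminescence, scaled between empty wells (0%) and DMSO (100%) viability. Cells were UOK109, UOK124 and UOK145 TFE3-fusion RCC lines at 500/well, exposed 48 hours at 37 C.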
# CRL-7250 = normal cell line; experiment: Cytotoxic Profiling of Annotated Libraries Using Quantitative High-Throughput Screening (AID 1296008); details: Five cell lines viability, CellTiter-Glo ATP luminescence, 48-72 h; max response: stronger effect = lower value; further: nearly all actives have a fitted effect of over 60% in size; on max response: on the % scale 0 is the no-effect control and ±100 the full control effect
# Method in brief: (§2)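 Cytotoxicity was measured as CellTiter-Glo ATP luminescence, read after 10 min at room temperature. Compound treatment of the cells lasted 48 or 72 hr at 37 degrees Celsius in a qHTS format.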
# HEK293 = experiment: as above; details: Five cell lines viability, CellTiter-Glo ATP luminescence, 48-72 h; max response: stronger effect = lower value
# Method in brief: as §2
# HaCat = experiment: as above; details: Five cell lines viability, CellTiter-Glo ATP luminescence, 48-72 h; max response: stronger effect = lower value
# Method in brief: as §2
# NIH3T3 = experiment: as above; details: Five cell lines viability, CellTiter-Glo ATP luminescence, 48-72 h; max response: stronger effect = lower value
# Method in brief: as §2
# MCC-13 = experiment: qHTS assay to identify novel small-molecules to repurpose for Merkel cell carcinoma treatment (AID 1296009); details: MCC and control cell lines, CellTiter-Glo viability, 72 h; series mostly up to 46 µM; further: nearly all actives have a fitted effect of over 60% in size
# Method in brief: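 Cell viability, measured as CellTiter-Glo luminescence, was normalized between DMSO and no-cell wells. The cells had been exposed to 8- or 11-point compound dilutions for 72 hr at 37 degree celsius.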
# [6] = Quantitative High-Throughput drug screen in 47 multiple myeloma cell lines against the NCATS MIPE library collection: RPMI8226_ATCC cell viability assay (AID 1919871); further: nearly all actives have a fitted effect of over 30% in size
# Method in brief: as §1
# KB-3-1 = experiment: Cytotoxic Profiling of Annotated Libraries Using Quantitative High-Throughput Screening (AID 1296008); details: Five cell lines viability, CellTiter-Glo ATP luminescence, 48-72 h; max response: stronger effect = lower value; further: nearly all actives have a fitted effect of over 60% in size; on max response: on the % scale 0 is the no-effect control and ±100 the full control effect
# Method in brief: as §2
# [7] = Quantitative High-Throughput drug screen in 47 multiple myeloma cell lines against the NCATS MIPE library collection: UTMC2_PLB cell viability assay (AID 1919868); details: CellTiter-Glo ATP luminescence, 48 h; viability (% of DMSO control): at 45.8 µM (top of the series); further: nearly all actives have a fitted effect of over 55% in size
# Method in brief: as §1
# [8] = Quantitative High-Throughput drug screen in 47 multiple myeloma cell lines against the NCATS MIPE library collection: OPM2_DSMZ cell viability assay (AID 1919872); further: nearly all actives have a fitted effect of over 30% in size
# Method in brief: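 Approved and investigational drugs from MIPE 4.0 were added by pin tool to 500 cells per well. After 48 hours at 37C, ATP-based CellTiter-Glo luminescence indicated remaining viability.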
# Potency means the concentration at half of the fitted maximal effect; tags describe the fitted curve by direction and shape.
smiles,measurement,setting,value
Cc1cc(C(=O)N2CCN(c3cccc(Cl)c3)CC2)n(-c2ccccc2)n1,Potency,[1],active: 3.72 µM
same,Potency,[2],active: 9.35 µM
same,Potency,[3],active: 0.148 µM
same,Potency,[4],active: 0.132 µM
same,Potency,[5],"inconclusive: 1.18 µM [falling, full curve]"
same,Potency,CRL-7250,active: 4.69 µM and active: 5.8 µM
same,Potency,HEK293,active: 526 nM and active: 1.46 µM
same,Potency,HaCat,"inconclusive: 7.43 µM [inhibitor, partial curve, poor fit] and inconclusive: 6.51 µM [inhibitor, single point]"
same,Potency,NIH3T3,"inconclusive: 2.64 µM [inhibitor, full curve] and inconclusive: 5.17 µM [inhibitor, full curve]"
same,Potency,MCC-13,"inconclusive: 3.72 µM [inhibitor, full curve]"
CN1CCC(=C2c3ccccc3C=Cc3ccccc32)CC1,Potency,[6],"inconclusive: 23.5 µM [cytotoxic, single point]"
same,Potency,[3],"inconclusive: 37.2 µM [cytotoxic, single point]"
same,Potency,[4],"inconclusive: 18.7 µM [cytotoxic, partial curve, poor fit]"
same,Potency,[5],"inconclusive: 11.8 µM [falling, partial curve]"
same,Potency,CRL-7250,"inconclusive: 26.6 µM [inhibitor, single point]"
same,Potency,HEK293,"inconclusive: 26.4 µM [inhibitor, single point]"
same,max response,KB-3-1,inactive: 25.1% and inactive: -12.3%
same,max response,NIH3T3,inactive: -0.507%
same,outcome,NIH3T3,inactive
CC(C)NCC(O)COc1ccc(COCCOC(C)C)cc1 (stereo not given),Potency,[7],inactive
same,Potency,[1],"inconclusive: 0.833 µM [cytotoxic, full curve, poor fit]"
same,Potency,[2],inactive
same,Potency,[3],"inconclusive: 18.7 µM [cytotoxic, partial curve, poor fit]"
same,Potency,[4],"inconclusive: 0.0332 µM [cytotoxic, full curve, poor fit]"
same,max response,CRL-7250,inactive: -5.09%
same,outcome,CRL-7250,inactive
same,max response,HEK293,inactive: 4.07% and inactive: -17.2%
same,max response,HaCat,inactive: -3.77%
same,outcome,HaCat,inactive
Nc1ncnc2c1nc(Cl)n2[C@@H]1O[C@H](CO)[C@@H](O)[C@@H]1O,Potency,[2],"inconclusive: 20.9 µM [cytotoxic, partial curve]"
same,Potency,[6],"inconclusive: 20.9 µM [cytotoxic, partial curve]"
same,Potency,[8],"inconclusive: 4.18 µM [cytotoxic, partial curve]"
same,Potency,[5],"inconclusive: 20.9 µM [falling, partial curve]"
same,Potency,CRL-7250,"inconclusive: 33.2 µM [inhibitor, single point]"
same,max response,HEK293,inactive: 0.527%
same,Potency,HaCat,active: 14.8 µM
same,Potency,KB-3-1,"inconclusive: 37.2 µM [inhibitor, single point]"
COCCOc1nc(-c2ccc(Cl)c(Cl)c2)n(-c2ccc(NC(=O)CCl)cc2)n1,Potency,[7],active: 20.9 µM
same,Potency,[3],"inconclusive: 18.7 µM [cytotoxic, partial curve]"
same,Potency,[4],active: 16.6 µM
same,Potency,[5],inconclusive: 20.9 µM
same,Potency,CRL-7250,active: 6.62 µM
same,Potency,HEK293,active: 3.72 µM and active: 4.61 µM
same,Potency,KB-3-1,"inconclusive: 29.1 µM [inhibitor, single point]"
same,Potency,NIH3T3,"inconclusive: 29.6 µM [inhibitor, single point]"
Cc1coc2c1C(=O)C(=O)c1c-2ccc2c1CCCC2(C)C,Potency,[7],"inconclusive: 7.43 µM [cytotoxic, full curve, poor fit]"
same,Potency,[1],"inconclusive: 18.7 µM [cytotoxic, partial curve, poor fit]"
same,Potency,[2],"inconclusive: 1.32 µM [cytotoxic, full curve, poor fit]"
same,Potency,[3],"inconclusive: 37.2 µM [cytotoxic, single point]"
same,Potency,[4],inactive
same,Potency,[5],"inconclusive: 6.62 µM [falling, full curve]"
same,Potency,CRL-7250,"inconclusive: 13.2 µM [inhibitor, partial curve] and inconclusive: 14.6 µM [inhibitor, partial curve]"
same,Potency,HEK293,"inconclusive: 20.9 µM [inhibitor, partial curve]"
same,Potency,KB-3-1,active: 16.4 µM
same,max response,KB-3-1,inactive: -4.98%
CN(C)S(=O)(=O)c1ccc2c(c1)C(=Cc1cc3c([nH]1)CCCC3)C(=O)N2,Potency,[3],"inconclusive: 8.33 µM [cytotoxic, full curve, poor fit]"
same,Potency,[4],"inconclusive: 5.26 µM [cytotoxic, full curve, poor fit]"
same,Potency,[5],"inconclusive: 20.9 µM [falling, partial curve]"
same,Potency,CRL-7250,"inconclusive: 37.2 µM [inhibitor, partial curve, poor fit]"
same,Potency,HEK293,"inconclusive: 23.5 µM [inhibitor, single point]"
same,Potency,HaCat,"inconclusive: 8.33 µM [inhibitor, full curve]"
NS(=O)(=O)c1ccc(Nc2nc(OCC3CCCCC3)c3[nH]cnc3n2)cc1,Potency,[7],active: 11.8 µM
same,Potency,[8],"inconclusive: 26.4 µM [cytotoxic, single point]"
same,Potency,[3],"inconclusive: 33.2 µM [cytotoxic, single point]"
same,Potency,[4],"inconclusive: 37.2 µM [cytotoxic, single point]"
same,Potency,CRL-7250,"inconclusive: 9.35 µM [inhibitor, full curve] and inconclusive: 16.4 µM [inhibitor, single point]"
same,Potency,HEK293,"inconclusive: 5.26 µM [inhibitor, full curve] and active: 18.4 µM"
same,Potency,KB-3-1,"inconclusive: 18.4 µM [inhibitor, single point]"
same,Potency,NIH3T3,"inconclusive: 33.2 µM [inhibitor, single point] and inconclusive: 29.1 µM [inhibitor, single point]"
NC12CC3CC(CC(C3)C1)C2,Potency,[1],inactive
same,Potency,[8],inactive
same,Potency,[3],active: 16.6 µM
same,Potency,[4],"inconclusive: 2.09 µM [cytotoxic, partial curve, poor fit]"
same,Potency,[5],"inconclusive: 9.35 µM [falling, full curve]"
same,Potency,CRL-7250,"inconclusive: 10.5 µM [inhibitor, single point]"
same,max response,HEK293,inactive: 1.92%
same,outcome,HEK293,inactive
CN1CCN(CCOc2cc(OC3CCOCC3)c3c(Nc4c(Cl)ccc5c4OCO5)ncnc3c2)CC1,Potency,[7],"inconclusive: 18.7 µM [cytotoxic, partial curve, poor fit]"
same,Potency,[6],"inconclusive: 10.5 µM [cytotoxic, partial curve, poor fit]"
same,Potency,[4],"inconclusive: 37.2 µM [cytotoxic, single point]"
same,Potency,[5],"inconclusive: 0.0332 µM [falling, full curve]"
same,Potency,CRL-7250,"inconclusive: 13.2 µM [inhibitor, partial curve, poor fit] and active: 10.3 µM"
same,Potency,HEK293,active: 26.4 µM and active: 16.4 µM
same,Potency,HaCat,active: 3.32 µM and active: 366 nM
same,Potency,NIH3T3,active: 1.66 µM and active: 651 nM
same,Potency,MCC-13,"inconclusive: 5.26 µM [inhibitor, partial curve]"
C[C@@H](CN1CC(=O)NC(=O)C1)N1CC(=O)NC(=O)C1,Potency,[7],active: 2.96 µM
same,Potency,[1],"inconclusive: 18.7 µM [cytotoxic, partial curve]"
same,viability (% of control),[2],inconclusive: 78.4% [cytotoxic]
same,Potency,[6],inactive
same,Potency,[4],"inconclusive: 0.469 µM [rising, full curve, poor fit]"
same,Potency,[5],inconclusive: 23.5 µM
same,Potency,CRL-7250,active: 0.148 µM
same,Potency,HEK293,"inconclusive: 29.9 µM [inhibitor, single point] and active: 235 nM"
same,Potency,KB-3-1,"inconclusive: 5.26 µM [inhibitor, partial curve]"
same,Potency,NIH3T3,"inconclusive: 33.5 µM [inhibitor, single point] and active: 187 nM"
CC(C)(C)c1nc(-c2cccc(NS(=O)(=O)c3c(F)cccc3F)c2F)c(-c2ccnc(N)n2)s1,Potency,[7],inactive
same,Potency,[2],"inconclusive: 1.66 µM [cytotoxic, full curve]"
same,Potency,[6],active: 13.2 µM
same,Potency,[8],active: 3.32 µM
same,Potency,[3],"inconclusive: 0.132 µM [cytotoxic, full curve, poor fit]"
same,Potency,[4],inactive
same,Potency,[5],"inconclusive: 1.18 µM [falling, full curve]"
same,Potency,CRL-7250,"inconclusive: 1.48 µM [inhibitor, full curve] and inconclusive: 1.3 µM [inhibitor, full curve]"
same,Potency,HEK293,"inconclusive: 3.32 µM [inhibitor, full curve, poor fit]"
same,Potency,HaCat,"inconclusive: 6.51 µM [inhibitor, partial curve, poor fit]"
Clc1ccc(C(Cn2ccnc2)OCc2c(Cl)cccc2Cl)c(Cl)c1 (stereo not given),Potency,[1],"inconclusive: 26.4 µM [cytotoxic, single point]"
same,Potency,[6],"inconclusive: 37.2 µM [cytotoxic, single point]"
same,Potency,[8],"inconclusive: 37.2 µM [cytotoxic, single point]"
same,Potency,[3],"inconclusive: 23.5 µM [cytotoxic, partial curve, poor fit]"
same,Potency,[4],"inconclusive: 20.9 µM [cytotoxic, partial curve, poor fit]"
same,Potency,[5],inconclusive: 0.0235 µM
same,max response,CRL-7250,inactive: -2.52%
same,outcome,CRL-7250,inactive
same,Potency,HEK293,"inconclusive: 33.2 µM [inhibitor, single point] and inconclusive: 29.1 µM [inhibitor, single point]"
